Test results published in article PMC4336329 (PLoS ONE, 2015).
About 14,000 (4.5%) of roughly 310,000 compounds showed an effect of 50% or more. The effect is printed as a negative number. The list shows a part of the results.

These compounds were tested against human ether-à-go-go-related gene (hERG) potassium channel (human, UniProt Q12809) (assay: primary screen, population patch clamp on CHO cells stably expressing hERG).
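Also: peak tail current of the secondary pulse compared with the same well before compound.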

Sequence of human ether-à-go-go-related gene (hERG) potassium channel (Q12809 whole entry, looked up): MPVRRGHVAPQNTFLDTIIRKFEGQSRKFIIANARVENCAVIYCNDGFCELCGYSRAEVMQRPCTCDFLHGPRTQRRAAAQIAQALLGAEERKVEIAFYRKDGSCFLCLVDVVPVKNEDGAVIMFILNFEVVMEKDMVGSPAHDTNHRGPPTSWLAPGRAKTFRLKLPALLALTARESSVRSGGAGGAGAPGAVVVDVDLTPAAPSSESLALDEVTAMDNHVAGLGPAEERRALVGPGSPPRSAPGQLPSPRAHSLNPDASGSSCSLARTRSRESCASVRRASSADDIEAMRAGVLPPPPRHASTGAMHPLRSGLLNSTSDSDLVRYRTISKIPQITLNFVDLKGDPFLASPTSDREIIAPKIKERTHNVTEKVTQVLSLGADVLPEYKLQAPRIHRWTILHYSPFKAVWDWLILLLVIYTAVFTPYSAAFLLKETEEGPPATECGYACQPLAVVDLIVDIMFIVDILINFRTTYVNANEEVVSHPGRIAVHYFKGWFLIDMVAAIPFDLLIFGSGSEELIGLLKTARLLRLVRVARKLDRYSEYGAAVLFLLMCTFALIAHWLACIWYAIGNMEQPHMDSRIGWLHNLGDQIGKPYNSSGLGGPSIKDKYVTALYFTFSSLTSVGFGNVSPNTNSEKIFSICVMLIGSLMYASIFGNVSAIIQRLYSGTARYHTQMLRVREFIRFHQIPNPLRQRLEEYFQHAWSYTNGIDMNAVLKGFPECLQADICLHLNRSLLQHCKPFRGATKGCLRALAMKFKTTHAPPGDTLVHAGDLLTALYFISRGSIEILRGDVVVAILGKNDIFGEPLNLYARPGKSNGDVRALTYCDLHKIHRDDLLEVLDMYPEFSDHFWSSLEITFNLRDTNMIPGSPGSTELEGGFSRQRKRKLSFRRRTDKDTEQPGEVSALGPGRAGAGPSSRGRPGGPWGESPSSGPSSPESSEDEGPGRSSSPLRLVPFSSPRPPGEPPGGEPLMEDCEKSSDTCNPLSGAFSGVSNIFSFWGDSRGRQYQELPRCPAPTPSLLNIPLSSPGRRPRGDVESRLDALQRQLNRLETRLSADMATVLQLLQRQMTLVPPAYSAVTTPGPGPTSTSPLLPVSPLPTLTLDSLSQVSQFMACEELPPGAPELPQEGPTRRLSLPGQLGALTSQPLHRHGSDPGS

Row | SMILES | hERG current change (%, negative = inhibition) at 10uM [%]
1 | CS(=O)(=O)N(CC(=O)NCc1ccncc1)c1ccc(F)c(Cl)c1 | 6.63
2 | CCCCCC(=O)N[C@@H](c1ccccc1)[C@@H](O)C(=O)O[C@H]1C[C@@]2(O)[C@@H](OC(=O)c3ccccc3)C3[C@](C)(C(=O)[C@H](O)C(=C1C)C2(C)C)[C@@H](OC1OCC(O)C(O)C1O)C[C@H]1OC[C@@]31OC(C)=O (some centres unmarked) | 6.26
3 | O=C(COC(=O)c1cccc(F)c1)NC1CC1 | 41.8
4 | O=C(Cc1cccs1)NCc1cccnc1 | 13
5 | O=C(CCN1C(=O)C2C3C=CC(C3)C2C1=O)Nc1c(F)cccc1F (centres unmarked) | -5.72
6 | O=S(=O)(c1ccccc1)N(Cc1nc(-c2ccccc2)no1)C1CCCCC1 | 5.01
7 | Oc1ccc(/C=N/Nc2nc(N3CCCCCC3)nc(N3CCCCCC3)n2)c(O)c1 | 5.14
8 | COc1cc(OC)cc(C2=NCCN2)c1.Cl | 25.1
9 | O=C(Nc1ccc2c(c1)C(=O)NC2=O)c1cc(Cl)ccc1Cl | 33.1
10 | COc1cccc(OCCCCN2CCCCC2)c1 | -8.36
11 | Cc1c(OCC(=O)NCCCN2CCCC2=O)ccc2c3c(c(=O)oc12)CCC3 | 4.72
12 | Cn1c(CCNC(=O)c2ccco2)nc2cc(NC(=O)c3ccco3)ccc21 | -14.4
13 | O=C(Cc1cccc2ccccc12)N/N=C/c1ccc(F)cc1 | 13
14 | O=C1NC(=O)C(=Cc2ccc(N3CCOCC3)cc2)C(=O)N1 | 12.9
15 | Cc1ccc(S(=O)(=O)Nc2ccc3ccccc3n2)cc1 | 5.01
16 | c1ccc2sc(NN=C3CCCCCC3)nc2c1 | -0.287
17 | Cc1ccc(-c2nnc(SCC(=O)N3CC(C)CC(C)C3)o2)cc1C (centres unmarked) | -13.8
18 | O=C(O)/C=C\C(=O)NC1CCCCC1 | 9.82
19 | Cc1ccccc1C(=O)NC=C1C(=O)OC(C)(C)OC1=O | 16
20 | Cc1nn(Cc2ccccc2Cl)c(C)c1NC(=O)c1noc2c1CCCCC2 | -13.8
21 | CCOC(=O)C1(C(F)(F)F)N=C(N(C)C)OC(N(C)C)=N1 | 5.29
22 | Cl.O.Oc1cc2c(cc1O)[C@H]1c3ccccc3CN[C@@H]1CC2 | -2.93
23 | CCOC(=O)N1CCN(c2c(N3CCc4ccccc43)c(=O)c2=O)CC1 | -33.6

Row | SMILES | hERG current change (%, negative = inhibition) at 10uM [%]
24 | CCCN(CCC)C(=O)c1ccc2c(c1)N(CC)C(=O)c1ccccc1S2(=O)=O | -9.18
25 | COc1cccc(-c2ccc(=O)n(CC(=O)Nc3ccc(S(=O)(=O)NCC(C)C)cc3)n2)c1 | 7.04
26 | COc1ccc(-c2cc3ccccc3n2CC(O)CN2CCCCC2)cc1.O=C(O)C(=O)O (centres unmarked) | -79.6
27 | COc1ccc(NC(=O)NC2CCCc3ccccc32)cc1 (centres unmarked) | 3.03
28 | COc1ccc(C(=O)C[n+]2cccc(C(N)=O)c2)cc1.[Br-] | 17.8
29 | O=C(NC1CCCC1)c1ccccc1OCc1ccccc1 | -39.6
30 | CN(CC(=O)Nc1ccccc1C(=O)NC1CC1)Cc1ccco1 | 1.63
31 | O=C(NCCc1cnc[nH]1)c1cccs1 | 18.2
32 | Nc1nnnn1/N=C/c1cccc(OCc2ccccc2Cl)c1 | 20.2
33 | Cl.c1ccc(CNc2ncnc3ccccc23)cc1 | 4.3
34 | NC(=O)Nc1ccc(C(=O)OCC(=O)N2CCCC2=O)cc1 | 14.6
35 | COc1ccc(CNCc2cccc(OC)c2OC)cc1Br.O=C(O)C(=O)O | -34.8
36 | COc1ccccc1-n1ccn(CC(=O)Nc2ccc(C)cc2Cl)c(=O)c1=O | -23
37 | CCOc1ccc(OCCC(=O)OCC(=O)NCc2ccc(Cl)cc2)cc1 | 8.85
38 | O=C(NCc1ccc(F)cc1)C1CCC(CNS(=O)(=O)c2ccccc2)CC1 (centres unmarked) | 0.947
39 | CCc1ccc(Nc2ncnc3nc[nH]c23)cc1 | -10.3
40 | CCCN(CCC)C(=O)Nc1ccc(F)cc1F | 23.4
41 | COc1ccc(NC(=O)c2cc3cc(OC)ccc3oc2=O)cc1 | -0.497
42 | CC(C)C(=O)Nc1ccccc1-c1nc2ccccc2[nH]c1=O | -15.8
43 | CC(C)N(Cc1nc(-c2ccccc2)no1)C(=O)CN(C)S(=O)(=O)c1ccccc1 | -1.52
44 | Nc1cc2c(cc1[N+](=O)[O-])OCCOCCOCCO2 | 0.413
45 | CCCn1c(N)c(N(CCOC)C(=O)c2ccccc2)c(=O)[nH]c1=O | 17
46 | CCOC(=O)C(Cc1c[nH]c2ccccc12)NC(=O)c1ccccc1Br (centres unmarked) | 6.02

Row | SMILES | hERG current change (%, negative = inhibition) at 10uM [%]
47 | OCCOCCn1c(C(CO)Nc2nc(-c3ccccc3Br)cs2)nc2ccccc21 (centres unmarked) | -72
48 | O=C(Nc1ccc(Cl)c(Cl)c1)Nc1ccccc1C(=O)O | 25
49 | O=C(NC1CCOCC1)C1CCC(=O)N(Cc2cccc(C(F)(F)F)c2)C1 (centres unmarked) | 13.7
50 | Cc1ccccc1Nc1nc(N)nc(CN2C(=O)NC3(CCCCC3C)C2=O)n1 (centres unmarked) | -12.4
51 | CC1CN(Cc2ccc(C#N)cc2Cl)CC(C)O1.Cl (centres unmarked) | 0.479
52 | CC(=O)c1cccc(NC(=O)Cn2cnc(S(=O)(=O)N3CCc4ccccc43)c2)c1 | 17.1
53 | CC(NC(=O)COC(=O)c1ccco1)c1ccccc1 (centres unmarked) | -12
54 | O=C(CSc1ccccc1)Nc1cccc(S(=O)(=O)N2CCCCC2)c1 | -19.6
55 | O=C1CC(Cc2ccccc2)C(=O)N1c1ncccn1 (centres unmarked) | 2.7
56 | CC(=O)c1ccc(N/C=C\C(=O)c2ccc(C)cc2)cc1 | 26.5
57 | COc1ccccc1NC(=O)C1CCCN(S(=O)(=O)c2cccc3nsnc23)C1 (centres unmarked) | -10.2
58 | Cc1cccc(/C=C/C(=O)c2ccc(N3CCOCC3)cc2)c1 | 5.94
59 | Cc1ccc(-n2ncc3c(=O)[nH]c(SCC(=O)N4CCCC4)nc32)cc1C | -1.75
60 | O=C(CC1C(=O)NCCN1Cc1ccccc1)NCCC1=CCCCC1 (centres unmarked) | 9.47
61 | Cc1cc(C)nc(Nc2nc3ccccc3o2)n1 | -11.3
62 | CCOC(=O)N1CCN(C(=O)c2ccc(CS(=O)c3ccccc3)o2)CC1 (centres unmarked) | 9.81
63 | CC1(C)CC(N(Cc2ccccc2)C(=O)Cc2ccccc2)CCO1 (centres unmarked) | 3.84
64 | CC1CCCCN1C(=O)C1CC(c2ccc(F)cc2)=NO1 (centres unmarked) | -16.7
65 | CCOc1ccc(NC(=O)CN2CCN(CC(=O)Nc3ccc(F)cc3)CC2)cc1 | -77.2
66 | CCN(CC)CCNC(=O)COc1ccc(OC)cc1 | 2.22
67 | CC(C)CCNCC1OCc2ccccc2CO1.Cl | -8.5
68 | Cc1ccc(OC(C)C(=O)N/N=C/c2ccccn2)cc1 (centres unmarked) | 13.2
69 | CCOC(=O)c1ccc(NC2OC(=O)c3ccccc32)cc1 (centres unmarked) | -0.927

Row | SMILES | hERG current change (%, negative = inhibition) at 10uM [%]
70 | O=C(/C=C(\c1ccc(Cl)cc1)n1cncn1)c1ccc(Cl)cc1 | 2.44
71 | CC(=O)c1ccc2c(c1)C1C(Cl)C(Sc3ccccc3[N+](=O)[O-])CC1C(C(=O)O)N2 (centres unmarked) | -20.8
72 | COc1ccc(-c2cc(C(=O)N/N=C/c3cccnc3)c3ccccc3n2)c(OC)c1 | -25.5
73 | CCC(CC)C(=O)NCCCN1CCOCC1 | 12.3
74 | CC(OC(=O)C1CCN(S(=O)(=O)c2ccc(C(C)(C)C)cc2)CC1)C(=O)N1CCOCC1 (centres unmarked) | -28
75 | CCCc1cc2c(cc1NC(=O)c1ccccc1C)OCO2 | 4.9
76 | O=C(CSc1nc2cc(C(=O)O)ccc2c(=O)n1-c1ccc(F)cc1)Nc1ccc(F)c(F)c1F | 1.54
77 | CC1CC1C(=O)N1CCN(S(=O)(=O)c2cc(C(F)(F)F)cc(C(F)(F)F)c2)CC1 (centres unmarked) | -35.4
78 | C[N+]12CCCCC1[C@@H](CO)CCC2.[Br-] (some centres unmarked) | 11.1
79 | Cc1ccc(C2=NNC(=O)C(P(=O)(c3ccccc3)c3ccccc3)C2)cc1 (centres unmarked) | 22.4
80 | CC1(C)O[C@@H]2[C@H](O1)[C@@H](COS(=O)(=O)[O-])O[C@H]2n1c(=S)[nH]c2c(=O)[nH]c(N)nc21.[K+] | 19.1
81 | Cc1nnc(SCC(=O)c2c(N)n(C3CC3)c(=O)[nH]c2=O)n1-c1ccccc1 | 5.53
82 | COc1ccc(/C(C)=N/OCC(=O)N2CC3(C)CC2CC(C)(C)C3)cc1 (centres unmarked) | -11.6
83 | CN(CC(=O)Nc1cccc(F)c1)CC(=O)N(C)CC(=O)Nc1ccccc1Br | -13.7
84 | C/C(=N/NC(=O)CNC(=O)c1ccccc1F)c1ccc2c(c1)CCCC2 | -10.7
85 | CCOc1ccc(S(=O)(=O)NCC2CCCO2)c2cccnc12 (centres unmarked) | 8.01
86 | O=S(=O)(c1ccc(SCc2ccc(Br)cc2)nc1)N1CCOCC1 | 4.88
87 | Cc1ccc(CNC(=O)CCC(=O)N2CC(C)Oc3ccccc32)cc1 (centres unmarked) | -28
88 | Cc1sc2ncnc(N3CCC(C(=O)Nc4sc5c(c4C(N)=O)CCC(C)C5)CC3)c2c1C (centres unmarked) | -2.24
89 | O=C(CS(=O)(=O)Cc1ccccc1)Nc1nc2ccccc2s1 | -10.2
